The results in this text go back to paper PMC12820563, “FoxP3 forms a head-to-head dimer in vivo and stabilizes its multimerization on adjacent microsatellites”.

The list shows a part of the results.

The assay addresses T1, MBP-FoxP1dN (Mus musculus, UniProt P58462 326-579).
T1 sequence: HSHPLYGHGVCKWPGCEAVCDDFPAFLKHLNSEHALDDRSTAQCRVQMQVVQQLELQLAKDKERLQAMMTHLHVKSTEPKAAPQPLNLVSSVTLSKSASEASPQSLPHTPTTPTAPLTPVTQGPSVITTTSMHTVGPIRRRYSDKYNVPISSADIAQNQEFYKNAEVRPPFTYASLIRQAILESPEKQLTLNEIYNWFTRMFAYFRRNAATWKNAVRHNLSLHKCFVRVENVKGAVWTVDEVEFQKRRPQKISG
Description: PD-seq (MBP pull-down with sequencing); 20 mM Tris-HCl pH 7.5, 100 mM NaCl, 1.5 mM MgCl2, 0.4 uM protein, 0.1 uM dsDNA library, 30 min, room temperature, amylose pull-down; high values mean tight binding. To be noted: protein: recombinant; tags: His6-MBP; chain copies: 2; dsDNA, one strand shown. The method, boiled down: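 E. coli-expressed mouse FoxP3 or FoxP1 fragment, N-terminus removed and tagged with His6-MBP, was used at 0.4 µM against 0.1 µM of a Klenow-filled degenerate double-stranded DNA library. After 30 min at room temperature in Tris pH 7.5 buffer with NaCl and MgCl2, complexes were pulled down on amylose resin and washed three times. Binding is pull-down over input reads-per-million enrichment from pooled replicates of the proteinase K-released, PCR-barcoded, Illumina-sequenced DNA.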
Take “GATGATTGTTCTCCCAGCTGATGAATTGTTCCGGTCGAGTAAACAAATTTTCCTAATCTTTCTGTTCAAGCGCCATCTAC”: the binding signal is 0.988 RPM ratio (pull-down/input). Consider “GATGATTGTTCTCCCAGCTGATGAATTCACGGTTTCGAGTAAACAAATTTTCCTAATCTTTCTGTTCAAGCGCCATCTAC”, for which the binding signal was 0.93 RPM ratio (pull-down/input). For the sequence “GATGATTGTTCTCCCAGCTGATGAATTTGACTGCTCGAGTAAACAAATTTTCCTAATCTTTCTGTTCAAGCGCCATCTAC”, the binding signal was 0.762 RPM ratio (pull-down/input). “GATGATTGTTCTCCCAGCTGATGAATTCTATGGCTCGAGTAAACAAATTTTCCTAATCTTTCTGTTCAAGCGCCATCTAC”: the binding signal was 0.788 RPM ratio (pull-down/input). As to “GATGATTGTTCTCCCAGCTGATGAATTAAAGGGTTCGAGTAAACAAATTTTCCTAATCTTTCTGTTCAAGCGCCATCTAC”, the binding signal is 0.829 RPM ratio (pull-down/input). Turning to “GATGATTGTTCTCCCAGCTGATGAATTACCGTGATCGAGTAAACAAATTTTCCTAATCTTTCTGTTCAAGCGCCATCTAC”, the binding signal is 0.939 RPM ratio (pull-down/input).

As to “GATGATTGTTCTCCCAGCTGATGAATTGCTGGCCTCGAGTAAACAAATTTTCCTAATCTTTCTGTTCAAGCGCCATCTAC”, the binding signal was 0.89 RPM ratio (pull-down/input). “GATGATTGTTCTCCCAGCTGATGAATTATATCCATCGAGTAAACAAATTTTCCTAATCTTTCTGTTCAAGCGCCATCTAC”: the binding signal is 1.02 RPM ratio (pull-down/input). On to “GATGATTGTTCTCCCAGCTGATGAATTTTCACCTTCGAGTAAACAAATTTTCCTAATCTTTCTGTTCAAGCGCCATCTAC”, for which the binding signal is 0.852 RPM ratio (pull-down/input).

For “GATGATTGTTCTCCCAGCTGATGAATTCGTTCGTTCGAGTAAACAAATTTTCCTAATCTTTCTGTTCAAGCGCCATCTAC”, the binding signal is 0.843 RPM ratio (pull-down/input). Regarding “GATGATTGTTCTCCCAGCTGATGAATTCGTACTCTCGAGTAAACAAATTTTCCTAATCTTTCTGTTCAAGCGCCATCTAC”, the binding signal is 0.778 RPM ratio (pull-down/input). For the sequence “GATGATTGTTCTCCCAGCTGATGAATTGCTAGCATCGAGTAAACAAATTTTCCTAATCTTTCTGTTCAAGCGCCATCTAC”, the binding signal is 1.2 RPM ratio (pull-down/input). As for “GATGATTGTTCTCCCAGCTGATGAATTAACTGCTTCGAGTAAACAAATTTTCCTAATCTTTCTGTTCAAGCGCCATCTAC”, the binding signal is 0.912 RPM ratio (pull-down/input). Turning to “GATGATTGTTCTCCCAGCTGATGAATTTCTTCACTCGAGTAAACAAATTTTCCTAATCTTTCTGTTCAAGCGCCATCTAC”, the binding signal was 0.868 RPM ratio (pull-down/input). With “GATGATTGTTCTCCCAGCTGATGAATTTAAGTGTTCGAGTAAACAAATTTTCCTAATCTTTCTGTTCAAGCGCCATCTAC”, the binding signal was 1.04 RPM ratio (pull-down/input). As for “GATGATTGTTCTCCCAGCTGATGAATTGTGTGCTTCGAGTAAACAAATTTTCCTAATCTTTCTGTTCAAGCGCCATCTAC”, the binding signal is 1.16 RPM ratio (pull-down/input).

For the sequence “GATGATTGTTCTCCCAGCTGATGAATTCGTAGGCTCGAGTAAACAAATTTTCCTAATCTTTCTGTTCAAGCGCCATCTAC”, the binding signal is 0.748 RPM ratio (pull-down/input). Regarding “GATGATTGTTCTCCCAGCTGATGAATTAGGCTTATCGAGTAAACAAATTTTCCTAATCTTTCTGTTCAAGCGCCATCTAC”, the binding signal was 0.935 RPM ratio (pull-down/input).

Regarding “GATGATTGTTCTCCCAGCTGATGAATTATCATAATCGAGTAAACAAATTTTCCTAATCTTTCTGTTCAAGCGCCATCTAC”, the binding signal is 1.37 RPM ratio (pull-down/input). As to “GATGATTGTTCTCCCAGCTGATGAATTACACTAATCGAGTAAACAAATTTTCCTAATCTTTCTGTTCAAGCGCCATCTAC”, the binding signal was 1.39 RPM ratio (pull-down/input). As for “GATGATTGTTCTCCCAGCTGATGAATTACGACCTTCGAGTAAACAAATTTTCCTAATCTTTCTGTTCAAGCGCCATCTAC”, the binding signal is 1.1 RPM ratio (pull-down/input). Under “GATGATTGTTCTCCCAGCTGATGAATTGAACGGATCGAGTAAACAAATTTTCCTAATCTTTCTGTTCAAGCGCCATCTAC” stands 0.799 RPM ratio (pull-down/input); under “GATGATTGTTCTCCCAGCTGATGAATTACAGGGGTCGAGTAAACAAATTTTCCTAATCTTTCTGTTCAAGCGCCATCTAC”, 0.898 RPM ratio (pull-down/input); under “GATGATTGTTCTCCCAGCTGATGAATTGTTTGATTCGAGTAAACAAATTTTCCTAATCTTTCTGTTCAAGCGCCATCTAC”, 1.33 RPM ratio (pull-down/input). For “GATGATTGTTCTCCCAGCTGATGAATTAATTCCTTCGAGTAAACAAATTTTCCTAATCTTTCTGTTCAAGCGCCATCTAC”, the binding signal is 0.955 RPM ratio (pull-down/input). Regarding “GATGATTGTTCTCCCAGCTGATGAATTTTCCACTTCGAGTAAACAAATTTTCCTAATCTTTCTGTTCAAGCGCCATCTAC”, the binding signal was 0.903 RPM ratio (pull-down/input). For “GATGATTGTTCTCCCAGCTGATGAATTGCGGTCGTCGAGTAAACAAATTTTCCTAATCTTTCTGTTCAAGCGCCATCTAC”, the binding signal was 0.951 RPM ratio (pull-down/input).

Turning to “GATGATTGTTCTCCCAGCTGATGAATTCCTGAATTCGAGTAAACAAATTTTCCTAATCTTTCTGTTCAAGCGCCATCTAC”, the binding signal was 0.913 RPM ratio (pull-down/input). Consider “GATGATTGTTCTCCCAGCTGATGAATTTTCCACGTCGAGTAAACAAATTTTCCTAATCTTTCTGTTCAAGCGCCATCTAC”, for which the binding signal was 0.889 RPM ratio (pull-down/input). Regarding “GATGATTGTTCTCCCAGCTGATGAATTAACATGATCGAGTAAACAAATTTTCCTAATCTTTCTGTTCAAGCGCCATCTAC”, the binding signal was 0.921 RPM ratio (pull-down/input). In the case of “GATGATTGTTCTCCCAGCTGATGAATTTTGCATATCGAGTAAACAAATTTTCCTAATCTTTCTGTTCAAGCGCCATCTAC”, the binding signal is 1.16 RPM ratio (pull-down/input).

On to “GATGATTGTTCTCCCAGCTGATGAATTAGTGAAGTCGAGTAAACAAATTTTCCTAATCTTTCTGTTCAAGCGCCATCTAC”, for which the binding signal was 0.872 RPM ratio (pull-down/input).
